Consider 20 molecules from PMC9911399, “Two distinct binding modes provide the RNA-binding protein RbFox with extraordinary sequence specificity”.

T1: RBFOX1 RRM (Homo sapiens, UniProt Q9NWB1 109-208)
T1 sequence: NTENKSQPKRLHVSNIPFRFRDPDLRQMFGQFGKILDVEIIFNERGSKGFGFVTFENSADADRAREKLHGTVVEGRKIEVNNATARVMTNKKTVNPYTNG

B1: ACACGUA (DNA:RNA)
RNA: GGGAGACCGGAAUUCAGAUUGUCCACACGUAUUAAAUCCCGUCGUAGCCACCA
DNA 1: CAATCTGAATTCCGGTCTCCC
DNA 2: TGGTGGCTACGACGGGATT
B2: AUUCCGA (DNA:RNA)
RNA: B1 RNA with C26U, A27U, G29C, U30G
DNA 1: CAATCTGAATTCCGGTCTCCC
DNA 2: TGGTGGCTACGACGGGATT
B3: ACUCACU (DNA:RNA)
RNA: B1 RNA with A27U, G29A, U30C, A31U
DNA 1: CAATCTGAATTCCGGTCTCCC
DNA 2: TGGTGGCTACGACGGGATT
B4: UGACGCC (DNA:RNA)
RNA: B1 RNA with A25U, C26G, U30C, A31C
DNA 1: CAATCTGAATTCCGGTCTCCC
DNA 2: TGGTGGCTACGACGGGATT
B5: GACUAAG (DNA:RNA)
RNA: GGGAGACCGGAAUUCAGAUUGUCCGACUAAGUUAAAUCCCGUCGUAGCCACCA
DNA 1: CAATCTGAATTCCGGTCTCCC
DNA 2: TGGTGGCTACGACGGGATT
B6: UAUUAGA (DNA:RNA)
RNA: B5 RNA with G25U, C27U, A30G, G31A
DNA 1: CAATCTGAATTCCGGTCTCCC
DNA 2: TGGTGGCTACGACGGGATT
B7: ACUCUGU (DNA:RNA)
RNA: B1 RNA with A27U, G29U, U30G, A31U
DNA 1: CAATCTGAATTCCGGTCTCCC
DNA 2: TGGTGGCTACGACGGGATT
B8: UUAUCGA (DNA:RNA)
RNA: B1 RNA with A25U, C26U, C28U, G29C, U30G
DNA 1: CAATCTGAATTCCGGTCTCCC
DNA 2: TGGTGGCTACGACGGGATT
B9: UCCGUCG (DNA:RNA)
RNA: B5 RNA with G25U, A26C, U28G, A29U, A30C
DNA 1: CAATCTGAATTCCGGTCTCCC
DNA 2: TGGTGGCTACGACGGGATT
B10: UACAUUC (DNA:RNA)
RNA: B5 RNA with G25U, U28A, A29U, A30U, G31C
DNA 1: CAATCTGAATTCCGGTCTCCC
DNA 2: TGGTGGCTACGACGGGATT
B11: ACUCUAA (DNA:RNA)
RNA: B1 RNA with A27U, G29U, U30A
DNA 1: CAATCTGAATTCCGGTCTCCC
DNA 2: TGGTGGCTACGACGGGATT
B12: GUCCCAC (DNA:RNA)
RNA: B5 RNA with A26U, U28C, A29C, G31C
DNA 1: CAATCTGAATTCCGGTCTCCC
DNA 2: TGGTGGCTACGACGGGATT
B13: CCCGCCU (DNA:RNA)
RNA: B1 RNA with A25C, A27C, C28G, G29C, U30C, A31U
DNA 1: CAATCTGAATTCCGGTCTCCC
DNA 2: TGGTGGCTACGACGGGATT
B14: GCUCAGC (DNA:RNA)
RNA: B1 RNA with A25G, A27U, G29A, U30G, A31C
DNA 1: CAATCTGAATTCCGGTCTCCC
DNA 2: TGGTGGCTACGACGGGATT
B15: GGAUAAU (DNA:RNA)
RNA: B5 RNA with A26G, C27A, G31U
DNA 1: CAATCTGAATTCCGGTCTCCC
DNA 2: TGGTGGCTACGACGGGATT
B16: GGUCUAU (DNA:RNA)
RNA: B5 RNA with A26G, C27U, U28C, A29U, G31U
DNA 1: CAATCTGAATTCCGGTCTCCC
DNA 2: TGGTGGCTACGACGGGATT
B17: CGAGCAG (DNA:RNA)
RNA: B5 RNA with G25C, A26G, C27A, U28G, A29C
DNA 1: CAATCTGAATTCCGGTCTCCC
DNA 2: TGGTGGCTACGACGGGATT
B18: AAUUUAC (DNA:RNA)
RNA: B5 RNA with G25A, C27U, A29U, G31C
DNA 1: CAATCTGAATTCCGGTCTCCC
DNA 2: TGGTGGCTACGACGGGATT
B19: AACGCUU (DNA:RNA)
RNA: B1 RNA with C26A, A27C, C28G, G29C, A31U
DNA 1: CAATCTGAATTCCGGTCTCCC
DNA 2: TGGTGGCTACGACGGGATT
B20: CCGACGU (DNA:RNA)
RNA: B1 RNA with A25C, A27G, C28A, G29C, U30G, A31U
DNA 1: CAATCTGAATTCCGGTCTCCC
DNA 2: TGGTGGCTACGACGGGATT

Residue numbers refer to the chain shown, from its start. The list shows a part of the results.

The experiment deals with T1, RBFOX1 RRM. The experiment can be described thus: EMSA; HiTS-Eq, 1 nM pool, 10 min; buffer printed only for the single-RNA assays: 10 mM Tris pH 7.5, 150 mM NaCl, 3.4 mM EDTA, 0.001% NP-40, 30 C. Conditions: tags: His6 N-terminal (pET28a); label: 5' 32P. The method, boiled down:
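Relative association constants, normalised to the cognate motif, were derived by comparing read counts of each RNA species with those of the control reaction. The RNA sequenced was the free fraction, separated by 8% native PAGE after a 10 min equilibration in 50 µL of 1 nM 5′-radiolabelled RNA (7 randomized nucleotides) with increasing concentrations of purified wild-type or mutant RbFox RRM.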
Consider B1, for which the binding signal was 0.00218 KA relative to UGCAUGU.

Turning to B2, the binding signal was 0.0045 KA relative to UGCAUGU.

Take B3: the binding signal is 0.000373 KA relative to UGCAUGU.

On to B4, for which the binding signal was 0.011 KA relative to UGCAUGU.

As for B5, the binding signal was 0.0138 KA relative to UGCAUGU.

B6: the binding signal was 0.0159 KA relative to UGCAUGU.

Regarding B7, the binding signal was 0.00745 KA relative to UGCAUGU.

Regarding B8, the binding signal was 0.00877 KA relative to UGCAUGU.

Regarding B9, the binding signal was 0.0147 KA relative to UGCAUGU.

On to B10, for which the binding signal was 0.00373 KA relative to UGCAUGU.

For the molecule B11, the binding signal was 0.00112 KA relative to UGCAUGU.

As to B12, the binding signal is 0.00365 KA relative to UGCAUGU.

With B13, the binding signal was 0.0125 KA relative to UGCAUGU.

B14: the binding signal is 0.011 KA relative to UGCAUGU.

Turning to B15, the binding signal is 0.0114 KA relative to UGCAUGU.

In the case of B16, the binding signal was 0.00632 KA relative to UGCAUGU.

Take B17: the binding signal was 0.0104 KA relative to UGCAUGU.

Turning to B18, the binding signal is 0.00288 KA relative to UGCAUGU.

Turning to B19, the binding signal is 0.00309 KA relative to UGCAUGU.

In the case of B20, the binding signal is 0.0055 KA relative to UGCAUGU.
